# Data taken from patent US20230383007A1 (BIOSION, published 2023).
# T1: human TROP2-his protein (human, UniProt P09758 27-274)
# T1 construct: also called biotin labeled human TROP2-his protein
# T1 sequence: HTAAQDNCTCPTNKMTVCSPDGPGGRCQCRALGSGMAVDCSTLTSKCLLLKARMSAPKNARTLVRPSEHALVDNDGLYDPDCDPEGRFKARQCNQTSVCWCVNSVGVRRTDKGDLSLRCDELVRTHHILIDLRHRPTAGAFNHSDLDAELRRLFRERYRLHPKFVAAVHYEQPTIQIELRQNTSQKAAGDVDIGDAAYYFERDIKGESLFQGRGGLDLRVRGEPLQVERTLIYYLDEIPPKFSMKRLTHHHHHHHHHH
# T2: full length human TROP2 on 293F-TROP2 cells (clone ID #3A8) (human, UniProt P09758 27-323)
# T2 sequence: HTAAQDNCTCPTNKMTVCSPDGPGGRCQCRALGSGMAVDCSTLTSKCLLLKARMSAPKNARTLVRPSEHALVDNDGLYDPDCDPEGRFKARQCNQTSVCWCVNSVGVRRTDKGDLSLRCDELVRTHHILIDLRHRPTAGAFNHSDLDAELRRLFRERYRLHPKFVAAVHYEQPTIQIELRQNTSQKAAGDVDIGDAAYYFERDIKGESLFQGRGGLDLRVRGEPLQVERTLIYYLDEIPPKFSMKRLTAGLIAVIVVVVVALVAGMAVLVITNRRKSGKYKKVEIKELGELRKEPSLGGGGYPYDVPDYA
# T3: cynomolgus TROP2-his protein (cynomolgus, UniProt P09758 27-272 (human entry), limits assumed)
# T3 construct: also called Cyno TROP2-his; Cynomolgus monkey TROP2-his protein
# T3 chain: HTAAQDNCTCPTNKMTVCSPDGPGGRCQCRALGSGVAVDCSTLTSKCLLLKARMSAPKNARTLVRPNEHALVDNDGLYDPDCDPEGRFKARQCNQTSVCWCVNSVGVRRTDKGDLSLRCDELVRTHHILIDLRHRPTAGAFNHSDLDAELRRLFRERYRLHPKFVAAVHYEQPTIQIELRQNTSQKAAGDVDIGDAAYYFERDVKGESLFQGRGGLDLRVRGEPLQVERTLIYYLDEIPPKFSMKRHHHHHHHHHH
# B1: 01-9F-CDR-V11-V11-Fc (Fc fusion)
# heavy: EVQLVESGGGLVQPGGSLRLSCAASGLPYSRYCVAWFRQAPGKGLEGVARILSDATTSYSDTVKGRFTISKDNAKNSLYLQMNSLRAEDTAVYYCAAEAFRPFTPSDADCTTVLGIDYWGQGTTVTVSS[… human IgG1 Fc …]
# notes: also called 01-9F-Fc-CDRV11-V11; 01-9F-Fc-CDRV 11-V11
# B2: 01-9F-CDR-V11-Fc (Fc fusion)
# heavy: QVQLVESGGGSVQAGGSLRLSCVVSGLPYERYCVAWFRQGPGKEREGVARILSDATTSYSDTVKGRFTISKDNAKNTLYLQMNSLKSEDTATYYCAAEAFRPFTPSDADCTTVLGIDYWGKGTPVTVSS[… human IgG1 Fc …]
# notes: also called 01-9F-CDR-Fc-V11
# Legend:
# human TROP2-his protein [1] = biological target: T1, human TROP2-his protein; assay: competitive ELISA: antibody pre-mixed with biotin labeled human TROP2-his, added to plate coated with the benchmark (sacituzumab analog); unit taken from the x axis (nM)
# human TROP2-his protein [2] = biological target: T1, human TROP2-his protein; assay: indirect ELISA on human TROP2; unit taken from the x axis (nM)
# human TROP2-his protein [3] = biological target: T1, human TROP2-his protein; assay: SPR Biacore T200; cell supernatant captured on anti-human IgG chip, 40 nM human TROP2-his as analyte
# Source text: (§1) The purified anti-TROP2 mouse monoclonal antibodies (mAbs) were characterized for binding affinity and binding kinetics by Biacore T200 system (GE healthcare, Pittsburgh, PA, USA). Briefly, goat anti-human IgG (GE healthcare, Cat #BR100839, Human Antibody Capture Kit) was covalently linked to a CM5 chip (carboxy methyl dextran coated chip from GE healthcare #BR100530) via primary amines, using a standard amine coupling kit (GE healthcare, Pittsburgh, PA, USA) provided by Biacore. Un-reacted moieties on the chip (biosensor) surface were blocked with ethanolamine. The anti-TROP2 antibodies of the disclosure and the benchmark at the concentration of 2 μg/ml were respectively flowed onto the chip at a flow rate of 10 μL/min. Then, serially diluted human TROP2-his protein (prepared in-house with SEQ ID NO: 16), or cynomolgus TROP2-his protein (prepared in-house with SEQ ID NO: 19), 2-fold dilution in HBS-EP⁺ buffer (provided by Biacore) starting at 160 nM, were flowed onto the chip at a flow rate of 30 μL/min. The antigen-antibody association kinetics was followed for 2 minutes and the dissociation kinetics was followed for 10 minutes. The association and dissociation curves were fit to a 1:1 Langmuir binding model using BIAcore evaluation software.
# (§2) For the BIAcore test, cell supernatants containing humanized 01-9F-CDR-V11 antibodies were respectively flowed onto the chip at a flow rate of 10 μL/min, and 40 nM human TROP2-his protein (prepared in-house with SEQ ID NO: 16) in HBS-EP⁺ buffer (provided by Biacore) were flowed onto the chip at a flow rate of 30 μL/min.
# [4] = biological target: T2, full length human TROP2 on 293F-TROP2 …; assay: cell based binding FACS (MFI) on 293F-TROP2 cells expressing human TROP2; unit taken from the x axis (nM)
# Method: Cells were washed twice with FACS buffer, and added with 100 μL/well R-Phycoerythrin AffiniPure Goat Anti-Human IgG, Fey fragment specific (1:1000 dilution in FACS buffer, Jackson Immunoresearch, Cat #109-115-098). Following an incubation of 40 minutes at 4° C. in dark, cells were washed twice and re-suspended in FACS buffer. Fluorescence was measured using a Becton Dickinson FACS Canto II-HTS equipment, and the MFI (mean fluorescence intensity) was plotted against antibody concentration. Data was analyzed using Graphpad Prism software and EC₅₀ values were reported.
# [5] = biological target: T3, cynomolgus TROP2-his protein; assay: indirect ELISA on cynomolgus TROP2; unit taken from the x axis (nM)
# human TROP2-his protein [6] = biological target: T1, human TROP2-his protein; assay: SPR Biacore; antibody captured on anti-human IgG chip, TROP2-his as analyte
# [7] = biological target: T3, cynomolgus TROP2-his protein; assay: as above
# human TROP2-his protein [8] = biological target: T1, human TROP2-his protein; assay: capture ELISA: antibody captured on anti-human IgG Fc coated plate, biotin labeled human TROP2-his detected with streptavidin-HRP; unit taken from the x axis (nM)
# Method: For the capture ELISA, 96-well plates were coated with 100 μl 2 μg/ml AffiniPure F(ab′)₂ Fragment GoatAnti-Human IgG, Fey fragment specific (Jackson Immuno Research, Cat #109-006-008) in PBS overnight at 4° C. Plates were washed once with wash buffer (PBS+0.05% v/v Tween-20, PBST) and then blocked with 200 μl/well blocking buffer (5% w/v non-fatty milk in PBST) for 2 hours at 37° C. Plates were washed 4 times and respectively incubated with 100 μl serially diluted anti-TROP2 antibodies of the disclosure, the benchmark or negative control hIgG (human immunoglobulin (pH4) for intravenous injection, Hualan Biological Engineering Inc.) (5-fold dilution in 2.5% w/v non-fatty milk in PBST, starting at 66.7 nM) for 40 minutes at 37° C., and then washed 4 times again. […] The reaction was stopped in 3-10 minutes at room temperature with 50 μl/well 1M H₂SO₄, and the absorbance of each well was read on a microplate reader using dual wavelength mode with 450 nm for TMB and 630 nm as the reference wavelength. […] Data was analyzed using Graphpad Prism software and EC₅₀ values were reported.
# human TROP2-his protein [9] = biological target: T1, human TROP2-his protein; assay: SPR Biacore; cell supernatant captured on anti-human IgG chip, 40 nM human TROP2-his as analyte
# Source text: as §1
# For the BIAcore test, cell supernatants containing the 01-9F-Fc variants were respectively flowed onto the chip instead of the purified anti-TROP2 antibodies, at a flow rate of 10 μL/min, and 40 nM human TROP2-his proteins (prepared in-house with SEQ ID NO: 16) in HBS-EP⁺ buffer (provided by Biacore), instead of serially diluted human TROP2-his proteins, were flowed onto the chip at a flow rate of 30 μL/min.
# human TROP2-his protein [10] = biological target: T1, human TROP2-his protein; assay: SPR Biacore T200; antibody captured on anti-human IgG chip, 40 nM human TROP2-his as analyte
# Source text: as §1, §2
binder,measurement,setting,value
B1,IC50,human TROP2-his protein [1],0.244 nM
same,EC50,human TROP2-his protein [2],0.0959 nM
same,Kd,human TROP2-his protein [3],0.2 nM
same,koff,human TROP2-his protein [3],0.000294 s⁻¹
same,kon,human TROP2-his protein [3],1.47e+06 M⁻¹ s⁻¹
same,EC50,[4],0.387 nM
same,EC50,[5],0.0901 nM
same,Kd,human TROP2-his protein [6],0.453 nM
same,koff,human TROP2-his protein [6],0.000179 s⁻¹
same,kon,human TROP2-his protein [6],394000 M⁻¹ s⁻¹
same,Kd,[7],0.397 nM
same,koff,[7],0.00018 s⁻¹
same,kon,[7],453000 M⁻¹ s⁻¹
same,EC50,human TROP2-his protein [8],0.169 nM
B2,IC50,human TROP2-his protein [1],0.198 nM
same,EC50,human TROP2-his protein [2],0.113 nM
same,Kd,human TROP2-his protein [9],0.172 nM
same,koff,human TROP2-his protein [9],8.17e-05 s⁻¹
same,kon,human TROP2-his protein [9],475000 M⁻¹ s⁻¹
same,EC50,[4],0.473 nM
same,Kd,human TROP2-his protein [10],0.151 nM
same,koff,human TROP2-his protein [10],0.000223 s⁻¹
same,kon,human TROP2-his protein [10],1.48e+06 M⁻¹ s⁻¹
same,EC50,[5],0.113 nM
same,Kd,human TROP2-his protein [6],0.327 nM
same,koff,human TROP2-his protein [6],0.000127 s⁻¹
same,kon,human TROP2-his protein [6],389000 M⁻¹ s⁻¹
same,Kd,[7],0.3 nM
same,koff,[7],0.000124 s⁻¹
same,kon,[7],412000 M⁻¹ s⁻¹
same,EC50,human TROP2-his protein [8],0.15 nM
